The values below come from the RNAGym collection of RNA variant scans (doi:10.1073/pnas.2313332121).

Variants at the floor of the assay are shown more often than the library holds them.

Sequences and labels used below:
B1: TPR 5TU (parent)
chain: GGAUCUUCUCGAUCUAACAAAAAAGACAAAUCUGCCACAAAGCUUGAGAGCAUCUUCGGAUGCAGAGGCGGCAGCCUUCGGUGGCGCGAUAGCGCCAACGUUCUCAACUAUGACACGCAAAACGCGUGCUCCGUUGAAUGGAGUUUAUCAUG

This series covers variants of B1. Briefly: polymerase ribozyme fitness, log enrichment relative to wild type (log ratio); higher = more active; in vitro selection for triplet polymerase activity. In a few lines:
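Frozen incubation at −7 °C formed the core of a single, triplicate in vitro selection round applied to PCR-built, transcribed mutant libraries of each subunit of a heterodimeric triplet polymerase ribozyme. Extended constructs were gel-excised, captured with streptavidin beads and amplified by RT-PCR, and input and output libraries were Illumina-sequenced with a filter of ≥10 input reads and ≥1 read per output. Fitness is the logarithm of genotype enrichment relative to wild-type enrichment, with inverse-variance-weighted replicate averaging, and the logarithm is base 2.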
GGAUCUUCUCGAUCUAACAAAAAACACAAAUCUGCCACAAAGCUUGAGAGCUUCUUCGGAUGCAGAGGCGGCAGCCUUCGGUGGCGCUAUAGCGCCAACGUUCUCAACUGUGACACGUAAAACGCGUGCUCCGUUGAAUGGAGUUUAUCAUG: the “polymerase ribozyme fitness (log ratio)” value was at most -4.2. As for GGAUCUUCUCGAUCUAACAAAAAACACAAAUCUGCCACAAAGCUUGAGAGCAUCUUCGGAUGCAGAGGCGGCAGCCUUAGGUGUCGCGAUAGCGCCCACGUUCUCAACUAUGACACGCAAAACGCGUGCUCCGUUGAAUGGAGUUUAUCAUG, the figure is at most -4.2. GGAUCUUCUCGAUCUAACAAAAAACACAAAUCUGCCACAAAGCUUGAGAGCAUCUUCGGAUGCAGAGGCGGUAGCCUUCGGUGGCGAGAUAGCGCCAACGUUCUCAACUAUGACACGCAAAACGCGUGCUCCGUUGAAUGGAGUUUAUCAUG: the “polymerase ribozyme fitness (log ratio)” value was at most -4.2. GGAUCUUCUCGAUCUAACAAAAAACACAAAUCUGCCACAAAGCUUGAGAGCAUCUUCGGAUGCAGAGGCGGCAGCCUUCGGUGGCGCGAUUGCGUCAACGUUCUCAACGAUGACACGCAAGACGCGUGCUCCGUUCAAUGGAAUUUAUCAUG: the “polymerase ribozyme fitness (log ratio)” value was at most -4.2. Take GGAUCUUCUCGAUCUAACAAAAAACUCAAAUCUGCCACAAAGCUUGAGAGCAUCUUCGGAUGCAGAGGCGGCAGCCUUCGGUGGCGUGAUAGCGCCAACGUUCUCAACUAUGACACGCAAAACGCGUGCUCCGUGGAAUGGGGUUUAUCAUG: the “polymerase ribozyme fitness (log ratio)” value is at most -4.2.

On to GGAUCUUCUCGAUCUAACAAAAAACACAAAUCUGCCACAAAGCUUGAGGGCAUUUUCGGAUGCGGAGGCGGCAGCCUUCGGUGGCGCGAUAGCGCCAACGUUCUCAGCUAUGACACGCAAAACGCGUGCUCCGUUGAAUGUAGUUUAUCAUG, for which the “polymerase ribozyme fitness (log ratio)” value was at most -4.2. Under GGAUCUUCUCGAUCUAACAAAAAACACAAAUCUGCCACAAAGCUUGAGAGCAUCUUCGGUUGCAGAGGCGGCAGCCUUCGGUGGCGCGAUAGAGGCAACGUUCUCAACUAUGACACGCAAAACGCGUGCUCCGUUGGAUGGAGUUUAUCAUG stands at most -4.2; under GGAUCUUCUCGAUCUAACAAAAAACACAAAUCUGCCACAAAGCUUGAGAGCAUCUUCGGAUGCAGAGGCGGCAGUCUUCGGUGGCGCGAUGGCGCCAAAGUUCUCAACUAUGACACGCAAAACUCGUGCUCCGAUGAAUGGAGUUUAUCAUG, at most -4.2. As for GGAUCUUCUCGAUCUAACAAAAAACACGAAUCUGCCACAAAGCUUUAAAGCAUCUUCGCAUGCAGAGGCGGCAACCUUCGGUGGCGCGAUAGCGCCAACGUUCUCAACUAUGACACGCUAAACGCGUGCUCCGUUGAAUGGAGUUUAUCAUG, the figure is at most -4.2; as for GGAUCUUCUCGAUCUAACAAAAAACACAAAUCUGCCACAAAGCUUGAGCGCAUCUACGGAUGCAGAGGCGGCAGCCUUCGGUGGUGCGAUAGCGCCAACGUUCUCAACUAUGACACGCAAAACGCGUGCUCCGUUGAAUGGAUUUUAUCAUG, at most -4.2. As for GGAUCUUCUCGAUCUAACAAAAAACAUAAAUCUGCCACAAAGCUUGAGAGCAUCUUCGGAUGCAGAGGCGGUAGCCUUCGAUGACGCGAUAGCGGCAACGUUCUCAACUAUGACACGCAAAACGCGUGCUCCGUUGAAUGGUGUUUAUCAUG, the figure is at most -4.2. Regarding GGAUCUUCUCGAUCUAACAAAAAACACAAAUCUGCCACAAAGCUUGAGAGCAUAUUCGGAUGCAGAGGCGGCAGCUUUCGGUGGCGCAAUAGCGCCAACGUUCUCAACUAUGACACGCAAAACGCGUGCUCCGUUGAAUGGAGUUUAUCAUG, the “polymerase ribozyme fitness (log ratio)” value was at most -4.2. Under GGAUCUUCUCGAUCUAACAAAAAACACAAAUCUGCCACAAAGCUUGAGAGCAUCUUCGGAUGCAGAGGCGGCAGCCUUCGGUGGUGCGUUAGCGCCAACGUUCUCAACUAUGACACGCAAAACGCGUGCUCCGUGGAAUGGAGUUUAUCAUG stands at most -4.2. As for GGAUCUUCUCGAUCUAACAAAAAACACAAAUCUGCCACAAAGCUUGAGAGCCACUUCGGAUGCAGAGGCGGCAGCCUUCGGUGGCGUGAUACCGCCAGCGUUCGCAAGUAUGACACGCAAAACGCGUGCUCCGUGGAAUGGAGUUUAUCAUG, the figure is at most -4.2.

For the variant GGAUCUUCUCGAUCUAACAAAAAACGCAAAUCUGCCACAACGCUUGAGAGCAUCUUCGGAUGCAGAGGCGGCAGCCUUCGGUGGGGCGAUAGCGCCAACGUUCUCAACUAUGACACGCAAAACGCGUGCUGCGUUGAAUGGAGUUUAUCAUG, the “polymerase ribozyme fitness (log ratio)” value is at most -4.2. Under GGAUCUUCUCGAUCUAACAAAAAACACAAAUCUGCCACAACGCUUGAGAGCAUCUUCGGAUGCAGAGGCGCCAGCCUUCGGUGGCGCGAUAGCGGCAACGUUCGCAACUAUGACACGCAAAACGCGUGCUCCGUUGAAUGGAGUUUAUCAUG stands at most -4.2.

Regarding GGAUCUUCUCGAUCUAACAAAAAACACACAUCUGCCACAAAGCUUGAGAGCAUCUUCGGAUGCAGAAGGGGCAGCCUUCGGUGGGGCGAUAGUGCCAACGUUCUCAACUAUGACACGCAAAACGCGUGCUCCGUUUAAUGUAGUUUAUCAUG, the “polymerase ribozyme fitness (log ratio)” value is at most -4.2.

GGAUCUUCUCGAUCUAACAAAAAACACAAAUCUGCCACAACGCUUGAGAGCGUCUUCGGAUGCAGAGGCGGCAGCCUUCGGUGGCACGAUAGCGCAAACGUUCUCAACUAUGACACGCAAAACGCGUGCUCCGUUGAAUGGAGUUUAUCAUG: the “polymerase ribozyme fitness (log ratio)” value is at most -4.2. As for GGAUCUUCUCGAUCUAACAAAAAACGCAAAUCUGCCACAAAGCUUUAGAGCAUCUUCGGAUGCAGAGGCGGCAGCCUUCGGUGGCGCGAUCGCGCCAACGUUCUCAACUAUGACACGCAAAACGCGUGCUCCGUUGAAUGGAGUUUAUCAUG, the figure is at most -4.2.
